# Results reported in the supplement of paper PMC3334620.
# Whole data set: some 33,000 sequences, median “E-score (-0.5 to 0.5)” near -0.043, cut for the highest 2% near 0.37. Some of the results follow.
# Target: T1, Upc2 (UniProt Q12151)
# T1 sequence: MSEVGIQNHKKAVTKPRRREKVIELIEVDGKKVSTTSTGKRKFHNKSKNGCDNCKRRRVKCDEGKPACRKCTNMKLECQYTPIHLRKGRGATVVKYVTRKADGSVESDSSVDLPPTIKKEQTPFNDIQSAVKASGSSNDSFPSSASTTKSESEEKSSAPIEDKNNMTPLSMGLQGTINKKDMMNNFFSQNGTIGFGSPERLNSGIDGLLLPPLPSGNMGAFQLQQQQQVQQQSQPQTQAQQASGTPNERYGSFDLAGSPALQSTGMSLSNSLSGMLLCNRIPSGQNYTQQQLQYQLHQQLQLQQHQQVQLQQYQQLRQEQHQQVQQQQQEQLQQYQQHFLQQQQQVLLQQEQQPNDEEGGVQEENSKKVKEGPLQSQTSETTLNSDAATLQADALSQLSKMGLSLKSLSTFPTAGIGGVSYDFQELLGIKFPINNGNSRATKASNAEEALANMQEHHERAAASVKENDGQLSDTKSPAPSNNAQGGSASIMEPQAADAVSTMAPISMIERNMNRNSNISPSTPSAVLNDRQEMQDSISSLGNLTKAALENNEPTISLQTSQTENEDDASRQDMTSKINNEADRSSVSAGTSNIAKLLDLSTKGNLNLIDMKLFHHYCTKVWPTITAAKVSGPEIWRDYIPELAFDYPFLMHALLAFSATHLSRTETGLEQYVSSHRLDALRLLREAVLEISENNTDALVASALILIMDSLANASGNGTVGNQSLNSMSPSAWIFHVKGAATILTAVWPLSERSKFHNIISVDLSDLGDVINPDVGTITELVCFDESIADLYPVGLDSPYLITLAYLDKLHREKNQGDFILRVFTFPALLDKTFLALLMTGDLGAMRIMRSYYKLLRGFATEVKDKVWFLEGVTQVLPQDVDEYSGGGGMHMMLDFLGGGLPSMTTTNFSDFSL
# Assay: PBM E-score (8-mer binding enrichment) (E-score (-0.5 to 0.5)); higher = stronger / more preferred TF binding; most listed sequences are background and not binding sites
# Conditions: protein concentration: 200 nM; construct: GST-full length
# Method: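 Universal 'all 10-mer' protein binding microarrays (Agilent AMADID 015681) probed with GST-tagged S. cerevisiae TFs (full-length or DBD) made by in vitro transcription/translation (PURExpress), about 100-200 nM. Bound TF was detected with fluorescent anti-GST. Each ungapped 8-mer (which stands for itself and its reverse complement) is scored by the PBM enrichment score (E-score), a modified Wilcoxon-Mann-Whitney statistic from -0.5 to +0.5, computed with the Universal PBM Analysis Suite. Scale: above 0.35 generally sequence-specific binding.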
row,Sequence,PBM E-score
1,AATACACC,0.0375
2,CGACCTAG,0.138
3,GATCATAC,0.132
4,AGGAATGG,-0.0816
5,AGACTTCC,-0.0535
6,CAAAATAA,-0.00602
7,ACGTCCTC,-0.123
8,AGATACGC,0.201
9,CACATATC,-0.158
10,ATCTGAGA,-0.112
11,ATTCTACC,-0.111
12,GATGACCA,-0.124
13,ATACAAGC,-0.0812
14,CGACTGGC,0.0921
15,ACTTTATA,0.127
16,ACATGTGA,-0.134
17,CAGGGTGG,-0.0687
18,CTGTTGAC,-0.0114
19,GTCAGGGA,-0.174
20,GCTCGGTA,0.213
21,AGCATAAC,-0.00187
22,TACGGATA,0.3

row,Sequence,PBM E-score
1,ATTGACTC,-0.111
2,ATGTTCGA,-0.0346
3,CGCAACGC,0.0437
4,GCGCACAC,-0.199
5,CAGATTTC,-0.0305
6,ACAGTTTA,0.0481
7,CAAGTCAC,-0.162
8,GAGCACCC,-0.0816
9,GGGGATAC,0.0375
10,ACGTGCCC,0.135
11,GCCGCCCA,-0.0637
12,GACTGCCA,-0.165
13,AGTCAAAG,-0.00429
14,ACGCACAA,0.115
15,AATGAAGG,-0.0344
16,CCTAGAGC,-0.328
17,CACGCCTA,-0.0789
18,CGGATTAC,0.0155
19,GGCTTTCA,0.0463
20,GTTTCACA,0.00208
21,CGTTGGAG,-0.0641
22,TCTCTACA,-0.144

row,Sequence,PBM E-score
1,GCGGTCCC,-0.139
2,CAGAGAAC,-0.0663
3,TTAGGGAA,-0.101
4,AGGCACGA,-0.187
5,ATGAAAGC,0.00743
6,CCTCGATA,-0.0083
7,AGTCTGGA,-0.0209
8,AACAAACG,0.353
9,GCTTCCTA,0.0242
10,CACTGTCG,0.138
11,GGCCAGCC,-0.0923
12,ACAAGCTC,-0.0437
13,CGAAGGAC,0.0495
14,ATTTATTA,0.185
15,TTTGAAAA,0.0863
16,AATCAGAA,-0.0871
17,ATCTCCAT,-0.322
18,AATTTGAG,-0.00158
19,GGACTGAC,-0.126
20,ACTATTTC,0.0805
21,ACCCCCCG,-0.158
22,GACTAGTA,-0.16

row,Sequence,PBM E-score
1,CCACTGAC,-0.0899
2,CCGTTTCG,0.255
3,ACAGTTCG,0.195
4,AATTCGAC,-0.211
5,CGCACCGA,0.0582
6,GATATCAC,0.00147
7,CGTTGCAC,0.182
8,TGGACAAA,-0.137
9,CCTGTAGC,-0.306
10,CTCTGGGC,-0.189
11,GCCTTAAC,0.127
12,CTTGTGCA,-0.0202
13,AGAGCGTA,0.223
14,TACGATGA,0.433
15,ACCCTACC,-0.102
16,AATGACGC,-0.0909
17,GACGCGCA,-0.0651
18,ATCGAGAG,0.0513
19,AGTGAGCA,-0.137
20,CGACGCGC,0.177
